{"source": "PubChem BioAssay AID1240", "about": "(Sanford-Burnham Center for Chemical Genomics, 2008)", "note": "Several values for one entry are separate records, joined by “and”; a condition that tells them apart may be missing. Identical values can stand only once. Among all 50,000 compounds or so, about 800 (1.6%) showed an effect of 50% or more. This is one part of the list.", "data": [{"molecular_target": "Bcl-2-like protein 10 (Homo sapiens) (UniProt Q9HD36)", "sequence (Q9HD36 whole entry, looked up)": "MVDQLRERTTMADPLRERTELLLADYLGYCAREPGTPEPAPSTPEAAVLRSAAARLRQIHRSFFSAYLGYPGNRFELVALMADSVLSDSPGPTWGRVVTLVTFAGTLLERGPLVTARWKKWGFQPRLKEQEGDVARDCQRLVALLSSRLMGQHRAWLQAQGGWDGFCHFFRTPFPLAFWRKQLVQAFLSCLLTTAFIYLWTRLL", "assay": "TR3 peptide-Bcl-B binding displacers, biochemical primary FP assay, phenotype converters (AID 1240);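 further: 0% = Bcl-B with tracer peptide and DMSO and 100% = tracer peptide lacking Bcl-B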", "conditions": "GST-Bcl-B / FITC-TR3 peptide fluorescence polarization; stronger effect = higher value; compound at 3.75 mg/L", "values": [{"smiles": "O=C1NC(=S)NC(=O)C1=Cc1cc(Cl)c(O)c(Cl)c1", "displacement": "5.5%"}, {"smiles": "O=C(CN(c1ccc(Cl)cc1Cl)S(=O)(=O)c1ccccc1)Nc1ccc(F)cc1", "displacement": "-8.1%"}, {"smiles": "CCOc1ccc(C(=O)Nc2ccc(OC)c(Cl)c2)cc1", "displacement": "12.1%"}, {"smiles": "O=c1[nH]c(=O)n(-c2ccc(F)cc2)c(O)c1C=Nc1ccc2c(c1)OCO2", "displacement": "-15.2%"}, {"smiles": "Oc1ccc(Nc2nc3ccccc3nc2Nc2ccc(O)cc2)cc1", "displacement": "-3.5%"}, {"smiles": "COc1ccc(/C=C2\\C(=O)NN(c3ccc(Cl)c(Cl)c3)C2=O)cc1OC", "displacement": "-13.2%"}, {"smiles": "COc1ccc(-c2c(C#N)c(N)n3c(nc4ccccc43)c2C#N)cc1OC", "displacement": "3%"}, {"smiles": "CCSc1nc2ccccc2n1C(=O)/C=C/c1cccs1", "displacement": "0.6%"}, {"smiles": "CN(C)c1ccc(/C=C2\\N=C(c3cccc(Cl)c3)OC2=O)cc1", "displacement": "-17.7%"}, {"smiles": "CC(NC(=O)C(F)(Cl)C(F)(F)F)c1ccccc1", "note": "(stereo unspecified)", "displacement": "-5.4%"}, {"smiles": "CCN(CC)CCCCOc1ccccc1F", "displacement": "13.2%"}, {"smiles": "Cc1cc(Cl)ccc1NC(=O)C1CCCN1C(=O)OC(C)(C)C", "note": "(stereo unspecified)", "displacement": "-4.6%"}, {"smiles": "CCOc1ccc(C2/C(=C(\\O)c3ccccc3)C(=O)C(=O)N2c2cccnc2)cc1", "note": "(stereo unspecified)", "displacement": "0.2%"}, {"smiles": "COc1ccc(-c2ccc(/C=C3\\C(=O)NC(=O)N(c4ccc(Cl)cc4)C3=O)o2)c([N+](=O)[O-])c1", "displacement": "47%"}, {"smiles": "COc1cc2c(cc1OC)C(SC)=NC(C)(C)C2", "displacement": "6.6%"}, {"smiles": "COc1ccccc1-c1coc2cc(OCc3ccccc3)ccc2c1=O", "displacement": "8.6%"}, {"smiles": "O=C(c1ccccc1)N1CCN(S(=O)(=O)c2ccccc2)C1", "displacement": "7.4%"}, {"smiles": "COc1ccc(-c2nc(-c3ccc(NC(C)=O)cc3)[nH]c2-c2ccc(OC)cc2)cc1", "displacement": "8%"}, {"smiles": "O=C(Nc1ccccc1C(=O)c1ccccc1)c1ccccc1Br", "displacement": "-10.1%"}, {"smiles": "O=C(c1cc2nc(-c3ccccc3)cc(C(F)(F)F)n2n1)N1CCOCC1", "displacement": "6.8%"}, {"smiles": "CC(=O)c1cc(Cn2cnc([N+](=O)[O-])n2)cs1", "displacement": "-1.9%"}, {"smiles": "COc1ccc(/C=C2\\SC(=O)N(CC(=O)Nc3ccc(C)cc3C)C2=O)cc1", "displacement": "7.5%"}, {"smiles": "Cc1cc(/C=C2\\C(=O)NC(=O)N(c3ccc4c(c3)OCO4)C2=O)c(C)n1-c1ccccc1", "displacement": "16.1%"}, {"smiles": "Clc1ccc(Cl)c(-c2nnc(-c3ccc4c(c3)OCO4)o2)c1", "displacement": "-7.8%"}, {"smiles": "COC(=O)c1c(F)c(F)c(N2CCOCC2)c(F)c1F", "displacement": "4.4%"}, {"smiles": "Oc1ccc(C2NN=C(c3ccccc3)S2)cc1", "note": "(stereo unspecified)", "displacement": "-2.8%"}, {"smiles": "COC(=O)C1=C(C)N(c2ccc(C)cc2)/C(=C\\c2sccc2C)C1=O", "displacement": "11.6%"}, {"smiles": "COc1ccc2c(c1OC)C(=O)N(c1cccc(C(F)(F)F)c1)C2", "displacement": "-19.7%"}, {"smiles": "O=C1c2ccccc2C(=O)N1c1nc(-c2ccccc2)cs1", "displacement": "-7%"}, {"smiles": "CN(C)c1cc(N/N=C/c2ccccc2O)nc(N(C)C)n1", "displacement": "-4%"}, {"smiles": "Cc1ccc(Cc2cnc(NC(=O)c3ccccc3Cl)s2)cc1", "displacement": "9.7%"}, {"smiles": "O=S(c1ccc2ccccc2c1)N1CCOCC1", "note": "(stereo unspecified)", "displacement": "-2.2%"}, {"smiles": "Oc1oc(-c2ccccc2)cc1N=Nc1ccccc1", "displacement": "-0.2%"}, {"smiles": "CN(C)S(=O)(=O)NCCCNc1ccc([N+](=O)[O-])cc1", "displacement": "-1.9%"}, {"smiles": "COc1cc(/C=C2\\C=C(c3ccc(Cl)cc3)OC2=O)cc(Br)c1OC(C)=O", "displacement": "-19.7%"}, {"smiles": "O=C(Nc1ccc([N+](=O)[O-])cc1)c1ccccc1C(F)(F)F", "displacement": "-10.2%"}, {"smiles": "O=C1C(=O)N(c2cccc(Cl)c2)C(c2cccc([N+](=O)[O-])c2)/C1=C(\\O)c1ccccc1", "note": "(stereo unspecified)", "displacement": "4.3%"}, {"smiles": "CCCC1=NN(c2ccc([N+](=O)[O-])cc2)C(=O)/C1=C\\N(C)C", "displacement": "-5.5%"}, {"smiles": "O=C(COc1ccc(Cl)cc1)Nc1ccc(Br)c(Cl)c1", "displacement": "14.1%"}, {"smiles": "COC(=O)c1c(C(F)(F)F)cc(-c2ccccc2)nc1C", "displacement": "8.8%"}, {"smiles": "CCC(C(=O)Nc1ccc(Br)cc1)c1ccccc1", "note": "(stereo unspecified)", "displacement": "9.1%"}, {"smiles": "O=C(O)/C(S)=C\\c1ccc(Cl)cc1", "displacement": "11.1%"}, {"smiles": "Cc1ccc(-c2nc3c(C)cccn3c2NC(=O)c2ccccc2)cc1", "displacement": "7.3%"}, {"smiles": "CCOc1ccc(C(=O)Nc2ccc(C)cc2[N+](=O)[O-])cc1Cl", "displacement": "11.7%"}, {"smiles": "Cc1c(N2C(=O)CSC2c2ccccc2)c(=O)n(-c2ccccc2)n1C", "note": "(stereo unspecified)", "displacement": "-4.2%"}, {"smiles": "COc1cccc(NC(=O)CN(c2ccc(Oc3ccccc3)cc2)S(C)(=O)=O)c1", "displacement": "-10.4%"}, {"smiles": "Cc1nnc(N/N=C/c2cccc(F)c2)[nH]c1=O", "displacement": "2.2%"}, {"smiles": "Cc1cc2ncn(/N=C\\c3ccccc3)c2cc1C", "displacement": "5.9%"}, {"smiles": "Cc1ccc2nc(-c3ccc(F)cc3)oc(=O)c2c1", "displacement": "-7%"}, {"smiles": "O=C(NCCO)c1ccc(-c2nnc(Nc3ccc(O)cc3)c3ccccc23)cc1", "displacement": "0.2%"}, {"smiles": "O=C(Nc1ccc2oc(-c3ccccc3F)nc2c1)c1ccc2c(c1)OCCO2", "displacement": "17.4%"}, {"smiles": "O=C(Nc1ccc(I)cc1)/C(=C\\c1cccc([N+](=O)[O-])c1)NC(=O)c1cccs1", "displacement": "-0.6%"}, {"smiles": "O=C(CCC1CCCC1)NC1CCCCC1", "displacement": "-0.2%"}, {"smiles": "CCOc1ccc2c(C(F)(F)F)cc(=O)oc2c1", "displacement": "-2.4%"}, {"smiles": "O=C(CSc1ncn[nH]1)Nc1ccc([N+](=O)[O-])cc1", "displacement": "-10.6% and -15.7%"}, {"smiles": "COC(=O)c1ccc(NC(=O)CCCOc2ccccc2)cc1", "displacement": "4.4%"}, {"smiles": "Cn1c(=O)c2c(ncn2CC(=O)N2CCN(c3ccc([N+](=O)[O-])cc3)CC2)n(C)c1=O", "displacement": "10.2%"}, {"smiles": "C=COCCNC(=O)C(=O)Nc1ccc(F)cc1", "displacement": "5%"}, {"smiles": "COC(=O)C1=C(C)NC2=C(C(=O)c3ccccc32)C1c1ccc(-c2cc([N+](=O)[O-])ccc2Cl)o1", "note": "(stereo unspecified)", "displacement": "15.5%"}, {"smiles": "CCN1CCC(=NNS(=O)(=O)c2ccc(Cl)cc2)CC1", "displacement": "-3%"}, {"smiles": "Clc1ccc(-n2ncnc2-c2cccc(Cl)c2)cc1", "displacement": "-1.9%"}, {"smiles": "CCOc1ccc(Nc2cc(C)nc(-n3nc(C)cc3C)n2)cc1", "displacement": "18.4%"}, {"smiles": "CCc1ccc(-c2nc3cc(NC(=O)c4ccccc4OC)ccc3o2)cc1", "displacement": "8.5%"}, {"smiles": "COc1ccc(Cl)cc1/C=C1/C(=O)NN(c2cccc(Br)c2)C1=O", "displacement": "-1.3%"}, {"smiles": "Cc1ccc(NCC(=O)N/N=C\\c2ccc(-c3ccc(Cl)cc3)o2)cc1", "displacement": "2.7%"}, {"smiles": "COCCCN1C(=O)/C(=C\\c2ccc(Cl)c(Cl)c2)C(C(=O)OC)=C1C", "displacement": "3.9%"}, {"smiles": "CC(C)n1c(=S)[nH]c2c1c(=O)n(C)c(=O)n2C", "displacement": "9.9%"}, {"smiles": "COc1ccc(S(=O)(=O)N2CCN(Cc3ccccc3OC)CC2)cc1", "displacement": "-7.2%"}, {"smiles": "Cc1cccc(NC(=O)CSc2cc(Cl)ccc2Cl)c1", "displacement": "7.9%"}, {"smiles": "CN1C(=O)C(=Cc2ccc(-c3ccc(Cl)c(Cl)c3)o2)C(=O)N(C)C1=O", "displacement": "-3.8%"}, {"smiles": "Cc1ccc(C(=O)Nc2nc3ccccc3n2Cc2ccc(Cl)cc2)cc1", "displacement": "9.9%"}]}]}
